# Some of the results follow. At the low end of the ranking the order means little.
# Molecular target: GST-SBP-SLBP (stem-loop binding protein) (UniProt Q14493)
# Assay: targeted RNA Bind-n-Seq;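 also: DESeq read counts versus GST-SBP nonspecific binding control pulldown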
# Settings: RBNS binding buffer: 25 mM Tris pH 7.5, 150 mM KCl, 3 mM MgCl2, 0.1% Tween, 0.5 mg/mL BSA, 1 mM DTT; 27 nM protein, 750 pM RNA pool; temperature not stated; high values mean tight binding
row,Sequence,binding signal (log2 fold change)
1,GGUCACGUCUCAAUCAACUCUUUUCCCAGGGAAACCCCUGGCAUACUCAACAGCUCGCAGUCAAG,0.123
2,GGUCACGUCUCAAUCAACUCAAAAGAGGGGGGGAAAACCCCUUUGCCCUCACACUCAACAGCUCGCAGUCAAG,0.235
3,GGUCACGUCUCAAUCAACUCUUCCCCCAGGGAAAACCCUGGCUAACUCAACAGCUCGCAGUCAAG,-0.19
4,GGUCACGUCUCAAUCAACUCAUCUCCAGGAGUUUACUCCUGUAUAUUCAACAGCUCGCAGUCAAG,0.286
5,GGUCACGUCUCAAUCAACUCUUCGUCAGGAGUUUCCUCCUGCAAUUUCAACAGCUCGCAGUCAAG,0.129
6,GGUCACGUCUCAAUCAACUCUUUUCCCAGGGAAAACCCUGGUUAUGUCAACAGCUCGCAGUCAAG,0.132
7,GGUCACGUCUCAAUCAACUCUUCGUCAGGAGUUUCCUCCUGUUAUCUCAACAGCUCGCAGUCAAG,-0.00914
8,GGUCACGUCUCAAUCAACUCUUAAGAGGGGGGGAAAACCCCUUUACCCUCCAACUCAACAGCUCGCAGUCAAG,-0.162
9,GGUCACGUCUCAAUCAACUCUUUCUCCAGGGAAAUCCCUGGUUAUUUCAACAGCUCGCAGUCAAG,-0.133
10,GGUCACGUCUCAAUCAACUCUUCCUCAGGAGUUUUCUCCUGCAAAUUCAACAGCUCGCAGUCAAG,0.0483
11,GGUCACGUCUCAAUCAACUCAUCCUCAGGAGUUUGCUCCUGCUAAUUCAACAGCUCGCAGUCAAG,0.274
12,GGUCACGUCUCAAUCAACUCCCCAGAGGGGGGGAAAACCCCUUUACCCUCCAUGUCAACAGCUCGCAGUCAAG,-0.37
13,GGUCACGUCUCAAUCAACUCAAGGUCAGGAGUUUUCUCCUGUUUAUUCAACAGCUCGCAGUCAAG,0.15
14,GGUCACGUCUCAAUCAACUCAUUUCCCAGGGAAAUCCCUGGCUAUUUCAACAGCUCGCAGUCAAG,-0.00533
15,GGUCACGUCUCAAUCAACUCUCCAGAGGGGGGGAAAACCCCUUUGCCCUCCAUAUCAACAGCUCGCAGUCAAG,-0.00577
16,GGUCACGUCUCAAUCAACUCAGUCUCAGGAGUUUACUCCUGCUAUCUCAACAGCUCGCAGUCAAG,0.184
17,GGUCACGUCUCAAUCAACUCAAUUCCAGGAGUUUUCUCCUGCUUAGUCAACAGCUCGCAGUCAAG,0.0293
18,GGUCACGUCUCAAUCAACUCUUUAGAGGGGGGGAAAACCCCUUUGCCCUCAAUAUCAACAGCUCGCAGUCAAG,0.121
19,GGUCACGUCUCAAUCAACUCUAAGGAGGGGGGGAAAACCCCUUUACCCUCAUCAUCAACAGCUCGCAGUCAAG,0.486
20,GGUCACGUCUCAAUCAACUCUACUCCAGGAGUUUACUCCUGCAUUCUCAACAGCUCGCAGUCAAG,-0.129
21,GGUCACGUCUCAAUCAACUCAAUCUCCAGGGAAAGCCCUGGUUAUCUCAACAGCUCGCAGUCAAG,-0.29
22,GGUCACGUCUCAAUCAACUCUCCCGAGGGGGGGAAAACCCCUUUGCCCUCAUUUUCAACAGCUCGCAGUCAAG,0.201
23,GGUCACGUCUCAAUCAACUCUCAAGAGGGGGGGAAAACCCCUUUACCCUCCCAAUCAACAGCUCGCAGUCAAG,-0.135
24,GGUCACGUCUCAAUCAACUCAUCUUCCAGGGAAACCCCUGGUUUUCUCAACAGCUCGCAGUCAAG,0.0752

row,Sequence,binding signal (log2 fold change)
1,GGUCACGUCUCAAUCAACUCUACUUCAGGAGUUUCCUCCUGCAUUCUCAACAGCUCGCAGUCAAG,-0.104
2,GGUCACGUCUCAAUCAACUCAGUCUCCAGGGAAACCCCUGGCAAUCUCAACAGCUCGCAGUCAAG,-0.0948
3,GGUCACGUCUCAAUCAACUCUACUCCAGGAGUUUCCUCCUGCAUACUCAACAGCUCGCAGUCAAG,0.0938
4,GGUCACGUCUCAAUCAACUCUCUAGAGGGGGGGAAAACCCCUUUGCCCUCGAAAUCAACAGCUCGCAGUCAAG,0.342
5,GGUCACGUCUCAAUCAACUCAAUCCCAGGAGUUUCCUCCUGUAUUCUCAACAGCUCGCAGUCAAG,0.164
6,GGUCACGUCUCAAUCAACUCUUUCGCAGGAGUUUUCUCCUGGUAUCUCAACAGCUCGCAGUCAAG,0.00473
7,GGUCACGUCUCAAUCAACUCAAUAGAGGGGGGGAAAACCCCUUUACCCUCCCAAUCAACAGCUCGCAGUCAAG,0.325
8,GGUCACGUCUCAAUCAACUCUUCCUCAGGAGUUUACUCCUGCAAAUUCAACAGCUCGCAGUCAAG,-0.2
9,GGUCACGUCUCAAUCAACUCAAUGGCAGGAGUUUUCUCCUGGAAUCUCAACAGCUCGCAGUCAAG,-0.0119
10,GGUCACGUCUCAAUCAACUCAUCCUCAGGAGUUUUCUCCUGUUUAUUCAACAGCUCGCAGUCAAG,-0.0744
11,GGUCACGUCUCAAUCAACUCUAUCGAGGGGGGGAAAACCCCUUUACCCUCACAAUCAACAGCUCGCAGUCAAG,0.599
12,GGUCACGUCUCAAUCAACUCAUCUCCAGGAGUUUACUCCUGUAAUCUCAACAGCUCGCAGUCAAG,0.0247
13,GGUCACGUCUCAAUCAACUCAUAAGAGGGGGGGAAAACCCCUUUACCCUCGUUCUCAACAGCUCGCAGUCAAG,-0.258
14,GGUCACGUCUCAAUCAACUCUAUCGAGGGGGGGAAAACCCCUUUGCCCUCAUCAUCAACAGCUCGCAGUCAAG,-0.334
15,GGUCACGUCUCAAUCAACUCAUAAGAGGGGGGGAAAACCCCUUUACCCUCGUUUUCAACAGCUCGCAGUCAAG,0.117
16,GGUCACGUCUCAAUCAACUCUCAAGAGGGGGGGAAAACCCCUUUACCCUCAUUUUCAACAGCUCGCAGUCAAG,0.0743
17,GGUCACGUCUCAAUCAACUCAAUUCCCAGGGAAACCCCUGGCUAAUUCAACAGCUCGCAGUCAAG,-0.0236
18,GGUCACGUCUCAAUCAACUCCAAAGAGGGGGGGAAAACCCCUUUACCCUCCACAUCAACAGCUCGCAGUCAAG,0.399
19,GGUCACGUCUCAAUCAACUCAUUUUCCAGGGAAAACCCUGGCGUUUUCAACAGCUCGCAGUCAAG,-0.0554
20,GGUCACGUCUCAAUCAACUCCUUAGAGGGGGGGAAAACCCCUUUACCCUCCACAUCAACAGCUCGCAGUCAAG,-0.0998
21,GGUCACGUCUCAAUCAACUCUUUCCCCAGGGAAAUCCCUGGUUUACUCAACAGCUCGCAGUCAAG,0.0469
22,GGUCACGUCUCAAUCAACUCUACUCCCAGGGAAAACCCUGGUUAUCUCAACAGCUCGCAGUCAAG,0.00217
23,GGUCACGUCUCAAUCAACUCAUAAGAGGGGGGGAAAACCCCUUUACCCUCACAUUCAACAGCUCGCAGUCAAG,0.135
